The list shows a part of the results.
Key:
[1] = system: HSkMC (human skeletal muscle cells); assay: cytotoxicity call (relative viability < 0.9); settings: 10 µM
[2] = system: HepG2; assay: cytotoxicity call (relative viability < 0.9); settings: 10 µM
[3] = system: S. aureus RN4220; assay: growth inhibition call (relative growth <= 0.2); settings: 50 µM

O=C(Cc1ccncc1)Nc1ccc2c(c1)[C@H]1C[C@@H](CC(=O)N3CCc4ccccc4C3)O[C@@H](CO)[C@H]1O2
inactive: cytotoxicity call [1] | cytotoxicity call [2] | growth inhibition call [3]

C[C@@H]1CN([C@@H](C)CO)C(=O)c2cc(NC(=O)Nc3cccc4ccccc34)ccc2O[C@@H](C)CCCCO[C@H]1CN(C)Cc1ccncc1
inactive: cytotoxicity call [1] | cytotoxicity call [2] | growth inhibition call [3]

C[C@H]1CCCCO[C@H](CN(C)C(=O)CCCN(C)C)[C@@H](C)CN([C@@H](C)CO)C(=O)c2cc(NC(=O)Nc3ccc(C(F)(F)F)cc3)ccc2O1
inactive: cytotoxicity call [1] | cytotoxicity call [2] | growth inhibition call [3]

O=C(CCc1ccc(O)cc1)c1c(O)c([C@@H]2O[C@H](CO)[C@@H](O)[C@H](O)[C@H]2O)c(O)c([C@@H]2O[C@H](CO)[C@@H](O)[C@H](O)[C@H]2O)c1O
inactive: cytotoxicity call [1] | cytotoxicity call [2] | growth inhibition call [3]

C[C@@H]1CN([C@@H](C)CO)C(=O)Cc2cc(NC(=O)Cc3ccccc3)ccc2O[C@@H]1CN(C)S(=O)(=O)c1ccc(F)cc1
inactive: cytotoxicity call [1] | cytotoxicity call [2] | growth inhibition call [3]

C[C@@H]1CN([C@H](C)CO)C(=O)c2cccc(NC(=O)c3cnccn3)c2O[C@H]1CN(C)CC1CCCCC1
inactive: cytotoxicity call [1] | cytotoxicity call [2] | growth inhibition call [3]

C[C@H]1CN([C@@H](C)CO)C(=O)c2cc(NC(=O)c3ccncc3)ccc2O[C@H]1CN(C)S(=O)(=O)c1ccc(F)cc1
inactive: cytotoxicity call [1] | cytotoxicity call [2] | growth inhibition call [3]

C[C@@H]1CN([C@H](C)CO)C(=O)c2cccc(NS(=O)(=O)c3ccc(F)cc3)c2O[C@@H]1CN(C)S(=O)(=O)c1ccc(F)cc1
inactive: cytotoxicity call [1] | cytotoxicity call [2] | growth inhibition call [3]
